# Measurements reported in PubChem BioAssay AID588855 (National Center for Advancing Translational Sciences (NCATS), 2011).
# “And” between values parts separate entries of the source, which are not always exact repeats. Identical values can stand only once. The campaign covered roughly 410,000 compounds. About 5,000 (1.2%) were called active. This list was built around the results that the source calls inconclusive (neither active nor inactive); the mix of calls is not that of the screen. Calls come from the whole dose curve; as a rule, active = well fitted inhibition curve with a large enough effect; inconclusive = small, poorly fitted or top-dose-only effect; inactive = no such curve, though single readings can be large or run the other way. Where the call is inconclusive, the potency comes from a doubtful curve fit.
# Test: qHTS for Inhibitors of TGF-b; note: nearly all actives have a fitted effect of over 65% in size
# Details: HepG2 CAGA-GFP TGF-b/SMAD3 reporter, GFP fluorescence, 18 h, TGF-beta stimulated, 500 pg/mL final; series mostly up to 46.1 µM; activity, negative = inhibition: at the top concentration
# Outline: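 HEPG2 CAGA-GFP cells (1000/well, DMEM with 1% FBS) were pre-incubated 2 h at 37 degrees C, given compound by pin tool, then stimulated with TGF-beta at 500 pg/mL final for 18 h before per-cell GFP fluorescence imaging.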
# % is set by controls: 0 for no effect and ±100 for the full control effect; potency is the fitted concentration of half-maximal effect; tags give direction and shape of the fitted curve.
SMILES,"activity, negative = inhibition",Potency
Cc1cccc(-c2nnc3n2N=C(c2ccc(Br)cc2)CS3)c1,inactive: -11.2%,
O=C(NCc1ccc(F)cc1)c1ccc(N2CCc3ccccc32)c([N+](=O)[O-])c1,,"inconclusive: 17.8 µM [inhibitor, single point]"
Cc1ccccc1C(=O)N/N=C/c1ccc(OCC(=O)N2CCCCC2)cc1,inactive: -27.1%,
COc1cc(NC(=O)c2ccccc2)c(OC)cc1Cl,inactive: -13.3%,
CCCN(C(=O)c1cn(CC(C)C)c(=O)c2cc(OC)c(OC)cc12)c1cccc(C)c1,,"inconclusive: 35.5 µM [inhibitor, single point]"
CCCSc1ccc(-c2nn(-c3ccccc3)cc2/C=C(/C#N)C(=O)N2CCOCC2)cc1,inactive: 4.02%,
Cc1nc2ccc(NC(=O)CCS(=O)(=O)c3ccc(Cl)cc3)cc2s1,,"inconclusive: 8.91 µM [inhibitor, partial curve, poor fit]"
O=C(NCCc1ccccc1)C1Cc2c(-c3ccccc3Oc3ccccc3)ccnc2O1 (configuration not stated),,"inconclusive: 35.5 µM [inhibitor, single point]"
Cc1ccc(NC(=O)C2CCCN(S(=O)(=O)c3c(C)noc3/C=C/N(C)C)C2)c(C)c1 (configuration not stated),inactive: 0.592%,
O=C(Nc1ccc(S(=O)(=O)N2CCc3ccccc3C2)cc1)c1ccccc1,,"inconclusive: 3.98 µM [inhibitor, partial curve]"
CSc1cccc(NC(=O)/C=C/c2ccc(Cl)cc2)c1,,"inconclusive: 15.8 µM [inhibitor, single point]"
CCOc1cc(-c2nnc(SCC(=O)NCCCOC)nc2-c2ccc(OC)c(OCC)c2)ccc1OC,inactive: 31.9%,
Fc1ccc(NC(=S)Nc2ccc(F)c(Cl)c2)cc1Cl,,"inconclusive: 14.1 µM [inhibitor, single point]"
CC(=O)C1=CCC(c2ccccc2)N(S(=O)(=O)c2cccc(C)c2)C1 (configuration not stated),,"inconclusive: 11.2 µM [inhibitor, partial curve, poor fit]"
COc1ccc(C2SCC(=O)N2c2ccc(F)cc2)cc1 (configuration not stated),inactive: 2.41%,
Cn1cc(S(=O)(=O)N2CCCCC2)cc1C(=O)NCc1ccc(Cl)cc1,,"inconclusive: 35.5 µM [inhibitor, single point]"
CCOC(=O)Cc1c(C)nc2c(-c3cccc(Br)c3)cnn2c1C,inactive: 4.18%,
CCOC(=O)C1(S(=O)(=O)c2ccc(Cl)cc2)CCN(Cc2ccccc2)CC1,,"inconclusive: 11.2 µM [inhibitor, single point]"
COC(=O)c1cc2oc3ccccc3c2n1CC(=O)Nc1ccc(N(C)C)cc1,,"inconclusive: 2.82 µM [inhibitor, partial curve, poor fit]"
O=[N+]([O-])c1cc2c(c3cccnc13)COCO2,,"inconclusive: 6.31 µM [inhibitor, full curve]"
C[C@H]1CN([C@@H](C)CO)S(=O)(=O)c2ccc(C3=CCCC3)cc2O[C@@H]1CN(C)C(=O)C1CCCCC1,,"inconclusive: 35.5 µM [inhibitor, single point]"
CCC(CO)Oc1cc(NCc2ccccc2)c2ncn(C(C)C)c2c1 (configuration not stated),,"inconclusive: 35.5 µM [inhibitor, single point]"
CCCN1Cc2cc(OC)ccc2-c2ccccc2S1(=O)=O,,"inconclusive: 22.4 µM [inhibitor, single point]"

SMILES,"activity, negative = inhibition",Potency
CCCCC(=O)NC(c1ccc(OC)cc1)c1ccc2cccnc2c1O (configuration not stated),,"inconclusive: 3.98 µM [inhibitor, full curve]"
CCC(Sc1nc2cc3c(cc2c(=O)n1CCCC(=O)NCc1ccc2c(c1)OCO2)OCO3)C(=O)NCCCOC (configuration not stated),,"inconclusive: 35.5 µM [inhibitor, single point]"
COC(=O)c1cc(C)nc2c1c(=O)nc(SCc1c(C)cc(C)cc1C)n2C1CC1,,"inconclusive: 35.5 µM [inhibitor, single point]"
CCOC(=O)C1=C(C)C(c2ccccc2)NC(=S)N1 (configuration not stated),inactive: -1.84%,
CCOC(=O)c1ccc(NC(=O)CN(c2ccc(C)cc2)S(=O)(=O)c2c(C)nn(C)c2C)cc1,,"inconclusive: 15.8 µM [inhibitor, single point]"
CC(C)(C)c1ccc(OCCC(=O)Nc2cccc(S(=O)(=O)NC3=NCCCCC3)c2)cc1,,"inconclusive: 10 µM [inhibitor, partial curve]"
COc1ccc(CNc2nc3ccccc3n2Cc2ccc(Cl)cc2)cc1OC,,active: 14.1 µM
O=C1c2[nH]nc(-c3ccccc3O)c2C(c2ccc(F)cc2)N1CC1CCCO1 (configuration not stated),inactive: -10.8%,
O=C(Cn1cc(S(=O)(=O)Cc2ccccc2Cl)c2ccccc21)Nc1cccc(C(F)(F)F)c1,,"inconclusive: 3.16 µM [inhibitor, full curve, poor fit]"
Cc1ccc(S(=O)(=O)N(CC(=O)Nc2c(C)cccc2C)c2cccc(Cl)c2)cc1,,"inconclusive: 35.5 µM [inhibitor, single point]"
CC(C)OCC1CC(CC(=O)NC(=S)Nc2cccc([N+](=O)[O-])c2)C(=O)O1 (configuration not stated),,"inconclusive: 11.2 µM [inhibitor, single point]"
Cn1cc(S(=O)(=O)N2CCCC2)cc1C(=O)NCc1ccc(F)cc1,,"inconclusive: 12.6 µM [inhibitor, single point]"
COc1ccc(NC(=O)NCCCN2CCN(c3cc(C)ccc3C)CC2)cc1,,"inconclusive: 35.5 µM [inhibitor, single point]"
CCOc1ccc(C(NC(=O)c2cc(OC)c(OC)c(OC)c2)c2cc(Cl)c3cccnc3c2O)cc1 (configuration not stated),inactive: -19.5%,
CC(C)Oc1cccc(C(=O)Nc2ccc3oc(-c4ccccc4)nc3c2)c1,,"inconclusive: 11.2 µM [inhibitor, partial curve]"
CCc1nc2c(OCc3c(C)noc3C)cccn2c1N(C)C(=O)c1ccccc1F,inactive: 6.3%,
Cc1cc(NCCCN2CCOCC2)n2ncc(-c3ccccc3)c2n1,,"inconclusive: 6.31 µM [inhibitor, single point]"
Cc1[nH]n2c(=O)c3c(nc2c1-c1ccccc1)CCC3,,"inconclusive: 12.6 µM [inhibitor, partial curve, poor fit]"
COc1cc(OC)c(NC(=O)CCNS(=O)(=O)c2ccc3c(c2)CC(C)N3C(C)=O)cc1Cl (configuration not stated),,"inconclusive: 12.6 µM [inhibitor, partial curve]"
Cc1cc(=O)oc2cc(OCC(=O)Nc3c(C(C)C)cccc3C(C)C)ccc12,inactive: -12.5%,
CC1C(=O)N(Cc2cn(Cc3ccco3)nn2)CCS(=O)(=O)N1Cc1ccc(-c2cccnc2)cc1 (configuration not stated),inactive: 1.9%,
Nc1[nH]n(-c2ccccc2)c(=O)c1N=Nc1ccc2c(c1)OCO2,inactive: -23.3%,
O=C(NC1CCCCC1)C(=S)NCCc1ccccc1,inactive: 4.52%,

SMILES,"activity, negative = inhibition",Potency
Cc1ccc(C2c3[nH]c4ccccc4c3CCN2C(=O)CCc2ccccc2)cc1 (configuration not stated),,"inconclusive: 35.5 µM [inhibitor, single point]"
O=C(Nc1nnc([C@H]2C[C@H](O)[C@@H](CO)O2)s1)c1cccc(Oc2ccccc2)c1,inactive: -14.1%,
COc1cc2c(cc1OC)C(c1c(-c3c(Cl)cccc3Cl)noc1C)=NCC2,inactive: -5.48%,
O=C(C1CCN(S(=O)(=O)c2cccc3cccnc23)CC1)N1CCN(C2CCCCC2)CC1,,"inconclusive: 35.5 µM [inhibitor, single point]"
CCN(CC)S(=O)(=O)c1cc(C(=O)N2CCc3ccccc32)ccc1Cl,,"inconclusive: 35.5 µM [inhibitor, single point]"
COC(=O)CCCC1=CC2=CC(=O)C(C)(OC(=O)c3cccs3)C(=O)C2=CN1Cc1ccc2c(c1)OCO2 (configuration not stated),,"inconclusive: 35.5 µM [inhibitor, partial curve, poor fit]"
CCOC(=O)C1CCCN(S(=O)(=O)c2ccc(Br)c(OC)c2)C1 (configuration not stated),,"inconclusive: 25.1 µM [inhibitor, single point]"
Fc1ccc(Nc2c(-c3ccco3)nc3ccccn23)cc1,,"inconclusive: 35.5 µM [inhibitor, single point]"
N#CCCn1nc(-c2ccc(Br)cc2)cc1Nc1ccccc1NC(=O)C(F)(F)F,,"inconclusive: 35.5 µM [inhibitor, single point]"
C=CCn1c(Cc2c[nH]c3ccccc23)n[nH]c1=S,,"inconclusive: 6.31 µM [inhibitor, single point]"
CC1=C(SCc2ccccc2)C(=O)c2ccccc2C1=O,,active: 7.94 µM
Nn1c(SCC(=O)NNC(=O)c2ccccc2)nnc1-c1ccccc1F,inactive: 10.7%,
CC(=O)c1c(COC(=O)c2ccncc2)nc2ccccc2[n+]1[O-],,"inconclusive: 5.01 µM [inhibitor, single point]"
Cc1ccc(S(=O)(=O)Nc2c(NC3CCCCC3)c3ccccc3oc2=O)cc1C,,"inconclusive: 25.1 µM [inhibitor, single point]"
CCc1ccccc1Nc1cc(C(=O)NCCCN(C)C2CCCCC2)c2ccccc2n1,,"inconclusive: 35.5 µM [inhibitor, single point]"
COC(=O)C1NN=C(C(=O)c2ccc(Cl)cc2)C1c1ccc(OC)cc1 (configuration not stated),inactive: -22.6%,
Cc1ccc(C)c(N2CCN(C(=O)c3nn(C)c4c3CS(=O)(=O)c3ccccc3-4)CC2)c1,,"inconclusive: 35.5 µM [inhibitor, single point] and inconclusive: 22.4 µM [inhibitor, partial curve, poor fit]"
CCN(CC)c1ccc(C=Nc2cc(C)ccc2C)c(O)c1,inactive: -12.9%,
CN(C)c1nc(=NCc2ccco2)ss1,,active: 0.316 µM
O=S(=O)(Nc1ccc(-c2nc3cccnc3s2)cc1)c1ccc(Cl)s1,,"inconclusive: 35.5 µM [inhibitor, single point]"
CCCCNC(=O)CC1N=C2c3ccccc3N=C(SCC(=O)NCc3ccccc3Cl)N2C1=O (configuration not stated),,"inconclusive: 7.08 µM [inhibitor, partial curve, poor fit]"
